Experimental findings from patent US20240327543A1 (SHENGHE CHINA BIOPHARMACEUTICAL, published 2024) are described below.

In assay [1] the target is Claudin18.2 on PANC-1-Claudin18.2 cells (UniProt P56856). Put plainly: flow cytometry on PANC-1-Claudin18.2 cells, PE anti-human IgG Fc secondary antibody. A general note: Flow cytometry measures light scatter and fluorescence of single cells or particles in a stream.
For assay [2], the target named is T1, Human-NKP30-His (human, UniProt O14931 19-135, limits assumed).
T1 construct: Coated on the ELISA plate at 0.5 µg/mL; also called NKP30 protein; not shown: His tag
T1 sequence (looked up): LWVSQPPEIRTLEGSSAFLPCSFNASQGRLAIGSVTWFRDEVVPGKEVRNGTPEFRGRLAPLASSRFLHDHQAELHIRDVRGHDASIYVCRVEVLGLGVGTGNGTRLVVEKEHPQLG
Put plainly: ELISA, plate coated with Human-NKP30-His, detection with HRP goat anti-human IgG-Fc. As for the experimental part: Human-NKP30-His was diluted to 0.5 μg/mL with PBS buffer at pH 7.4, added into the 96-well ELISA plate at 100 μL per well, coated overnight at 4° C., and blocked with 1% BSA blocking solution for 1 hour. The plate was washed 3 times with PBST, and the constructed antibodies were diluted to 10 μg/mL with 0.5% BSA sample diluent as the starting concentration, and then diluted by 3-fold gradient (11 gradients in total). A negative control (blank well and IgG1 isotype control) and a positive control were set, and the positive control was a NKP30 humanized antibody (sequence shown in SEQ ID No.32), and incubated at 37° C. for 1 h at 100 μL per well. […] The absorbance value of each well in the 96-well plate was determined by selecting the wavelength of 450 nm and the reference wavelength of 570 nm on a multifunctional enzyme marker, and the absorbance value (OD)=OD₄₅₀ₙₘ−OD₅₇₀ₙₘ. The logarithm of the concentration of the constructed antibodies were taken as the abscissa, and the measured absorbance value of each well was taken as the ordinate, and the Sigmoidaldose-response (Variable Slope) method (GraphPad Prism software, GraphPad Software, San Diego, California) was selected for nonlinear regression to obtain the binding curve of the target antibody to NKP30 protein.
A general note: ELISA stands for enzyme-linked immunosorbent assay.

B1: CNVR-B (other)
light: DIVMTQSPSSLTATARERVTMSCKSSQSLLNSGNQKNYLTWYQQKPGQPPKLLIYWASTRESGVPDRFTGSGSGTDFTLTVSSVQAEDLAVYYCQNAYFYPFTFGSGTKLEIKRTVAAPSVFIFPPSDEQLKSGTASVVCLLNNFYPREAKVQWKVDNALQSGNSQESVTEQDSKDSTYSLSSTLTLSKADYEKHKVYACEVTHQGLSSPVTKSFNRGEC
heavy: EVQLVESGGGLVQPGGSLRLSCAASGITFSRSVMGWFRQAPGKLRELVAGITSDDNTDYADSVKGRFTISRDNSKNTLYLQMNSLRAEDTAVYYCNILPDSRLGWGQGTLVTVSSGGGGSGGGGSGGGGSEVQLVESGGGLVKPGGSLKLSCTASGFTFSSYVMSWVRQTPEKRLEWVATINDGGSYTYYPDNLKGRFTISRDNAKNNLYLQMSHLRSEDTARYYCSVLRRGNAMDYWGQGTSVTVSS[gap - human IgG1 constant region]GGSGGGGSGGGGSGGGGSTGSDTGRPFVEMYSEIPEIIHMTEGRELVIPCRVTSPNITVTLKKFPLDTLIPDGKRIIWDSRKGFIISNATYKEIGLLTCEATVNGHLYKTNYLTHRQTNTIIDVVLSPSHGIELSVGEKLVLNCTARTELNVGIDFNWEYPSSKHQHKKLVLSPVNRDLKTQSGSEMKKFLSTLTIDGVTRSDQGLYTCAASSGLMTKKNSTFVRVHEK
notes: It is a Claudin18.2 full-length antibody with the NKP30 VHH at the N-terminus of both heavy chains and VEGFR1 at the C-terminus of both heavy chains; also called constructed antibody CNVR-B; trifunctional antibody
B1 came in with a percent of cells in gate M2 in assay [1] of 97.7%.

B2: CNVR-A (other)
light: EVQLVESGGGLVQPGGSLRLSCAASGITFSRSVMGWFRQAPGKLRELVAGITSDDNTDYADSVKGRFTISRDNSKNTLYLQMNSLRAEDTAVYYCNILPDSRLGWGQGTLVTVSSGGGGSGGGGSGGGGSDIVMTQSPSSLTATARERVTMSCKSSQSLLNSGNQKNYLTWYQQKPGQPPKLLIYWASTRESGVPDRFTGSGSGTDFTLTVSSVQAEDLAVYYCQNAYFYPFTFGSGTKLEIKRTVAAPSVFIFPPSDEQLKSGTASVVCLLNNFYPREAKVQWKVDNALQSGNSQESVTEQDSKDSTYSLSSTLTLSKADYEKHKVYACEVTHQGLSSPVTKSFNRGEC
heavy: EVQLVESGGGLVKPGGSLKLSCTASGFTFSSYVMSWVRQTPEKRLEWVATINDGGSYTYYPDNLKGRFTISRDNAKNNLYLQMSHLRSEDTARYYCSVLRRGNAMDYWGQGTSVTVSS[gap - human IgG1 constant region]GGSGGGGSGGGGSGGGGSTGSDTGRPFVEMYSEIPEIIHMTEGRELVIPCRVTSPNITVTLKKFPLDTLIPDGKRIIWDSRKGFIISNATYKEIGLLTCEATVNGHLYKTNYLTHRQTNTIIDVVLSPSHGIELSVGEKLVLNCTARTELNVGIDFNWEYPSSKHQHKKLVLSPVNRDLKTQSGSEMKKFLSTLTIDGVTRSDQGLYTCAASSGLMTKKNSTFVRVHEK
notes: also called constructed antibody CNVR-A; trifunctional antibody
In the case of B2, the percent of cells in gate M2 in assay [1] turned out to be 97%.

B3: CNV-C1 (protein)
light: DIVMTQSPSSLTATARERVTMSCKSSQSLLNSGNQKNYLTWYQQKPGQPPKLLIYWASTRESGVPDRFTGSGSGTDFTLTVSSVQAEDLAVYYCQNAYFYPFTFGSGTKLEIKRTVAAPSVFIFPPSDEQLKSGTASVVCLLNNFYPREAKVQWKVDNALQSGNSQESVTEQDSKDSTYSLSSTLTLSKADYEKHKVYACEVTHQGLSSPVTKSFNRGECGGGGSGGGGSGGGGSGGGGSEVQLVESGGGLVQPGGSLRLSCAASGITFSRSVMGWFRQAPGKLRELVAGITSDDNTDYADSVKGRFTISRDNSKNTLYLQMNSLRAEDTAVYYCNILPDSRLGWGQGTLVTVSS
heavy: EVQLVESGGGLVKPGGSLKLSCTASGFTFSSYVMSWVRQTPEKRLEWVATINDGGSYTYYPDNLKGRFTISRDNAKNNLYLQMSHLRSEDTARYYCSVLRRGNAMDYWGQGTSVTVSS[gap - human IgG1 constant region]GGSGGGGSGGGGSGGGGSEVQLVESGGGLVQPGGSLRLSCAASGYTFTNYGMNWVRQAPCKGLEWVGWINTYTGEPTYAADFKRRFTFSLDTSKSTAYLQMNSLRAEDTAVYYCAKYPHYYGSSHWYFDVWGQGTLVTVSSGGGGSGGGGSGGGGSDIQMTQSPSSLSASVGDRVTITCSASQDISNYLNWYQQKPGKAPKVLIYFTSSLHSGVPSRFSGSGSGTDFTLTISSLQPEDFATYYCQQYSTVPWTFGCGTKVEIK
In the case of B3, the percent of cells in gate M2 in assay [1] was 51.3%.

B4: CNVR-C (other)
light: B3 light
heavy: B2 heavy
notes: It is a Claudin18.2 full-length antibody with the NKP30 VHH at the C-terminus of both light chains and VEGFR1 at the C-terminus of both heavy chains; also called constructed antibody CNVR-C; trifunctional antibody
B4: the percent of cells in gate M2 in assay [1] was found to be 99%. Moreover, the binding result in assay [2] is “binds”.
